In all, about 410,000 compounds went through this assay and about 5,000 (1.2%) were called active. Inconclusive results, whose numbers are uncertain, are shown with a selection of clear calls. Calls follow the shape of the dose curve; as a rule, active = well fitted inhibition curve with a large enough effect; inconclusive = small, poorly fitted or top-dose-only effect; inactive = no such curve, though single readings can be large or run the other way. Potencies of inconclusive entries are doubtful fits and often do not repeat.
assay: qHTS for Inhibitors of TGF-b; settings: HepG2 CAGA-GFP TGF-b/SMAD3 reporter, GFP fluorescence, 18 h, TGF-beta stimulated, 500 pg/mL final; series mostly up to 46.1 µM; activity, negative = inhibition: at the top concentration; also: nearly all actives have a fitted effect of over 65% in size
In short: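 First, reporter cells (HEPG2 CAGA-GFP) rested 2 h at 37 degrees C. Next, compounds were pinned in and TGF-beta added to 500 pg/mL final. After 18 h, GFP was imaged per cell and summed per well.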
% is scaled to controls: 0 for no effect and ±100 for the full control effect; potency is read from the fitted curve at half-maximal effect; tags tell the direction and shape of the fitted curve.

SMILES | Potency | activity, negative = inhibition
CCc1ccc(C(=O)c2cn(Cc3ccccc3)c3cc(OC)c(OC)cc3c2=O)cc1 | inconclusive: 25.1 µM [inhibitor, single point] | 
O=C(Nc1ccc(F)cc1)c1ccc(CSc2ccc(Cl)cc2)o1 | inconclusive: 35.5 µM [inhibitor, single point] | 
CCOC(=O)Cc1nnc(NC(=O)CC)s1 | inconclusive: 5.62 µM [inhibitor, single point] | 
Cc1ccc(C(=O)Nc2ccccc2C(=O)OCc2cc(=O)n3nc(C4CC4)sc3n2)cc1 |  | inactive: 18.1%
Cc1oc(-c2ccc(Cl)cc2)nc1CN1CCCC(C(=O)NCCCN2CCOCC2)C1 (centres undefined) | inconclusive: 14.1 µM [inhibitor, single point] | 
N#Cc1ccc(C(=O)OCCCc2cc3ccccc3c(=O)o2)cc1 | inconclusive: 2.82 µM [inhibitor, single point] | 
Cc1noc(C)c1COc1ccc(C(=O)Nc2ncccc2O)cc1 | inconclusive: 3.16 µM [inhibitor, single point] | 
Cc1cn2c(=O)cc(COC(=O)c3ccccc3F)nc2s1 |  | inactive: -16.8%
CN(CCOc1ccc(Cl)cc1)C(=O)C1CCN(C(=O)c2ccc(F)cc2)CC1 | inconclusive: 35.5 µM [inhibitor, single point] | 
COc1ccccc1N1CCN(CC(O)COCCOc2ccc(Br)cc2)CC1 (centres undefined) | inconclusive: 17.8 µM [inhibitor, single point] | 
COc1cc([C@@H]2c3cc4c(cc3[C@@H](O)[C@H]3COC(=O)[C@H]23)OCO4)cc(OC)c1O[Si](C)(C)C(C)(C)C | inconclusive: 20 µM [inhibitor, partial curve, poor fit] | 
Cc1csc(NC(=O)C2CCN(S(=O)(=O)c3ccccc3F)CC2)n1 | inconclusive: 35.5 µM [inhibitor, single point] | 
Fc1ccc(C2=NNC(=NCc3ccccc3)SC2)cc1F | inconclusive: 35.5 µM [inhibitor, partial curve, poor fit] | 
O=C(CCS(=O)(=O)Cc1ccccc1)NCCc1ccccc1 |  | inactive: -0.304%
O=C1C2CCCN2C(=S)N1Cc1ccccc1 (centres undefined) | inconclusive: 35.5 µM [inhibitor, single point] | 
Cc1ccc(CSCCC(=O)N2CCN(c3cc(C)ccc3C)CC2)cc1 | inconclusive: 20 µM [inhibitor, partial curve, poor fit] | 
COc1ccc(-c2noc(CN(C(=O)Cc3ccc(C)cc3)C(C)C)n2)cc1 | inconclusive: 12.6 µM [inhibitor, partial curve] | 
Cc1ccc(S(=O)(=O)NC(=O)Nc2cc(C)on2)cc1 | inconclusive: 35.5 µM [inhibitor, single point] | 
Cc1ccc(CN2C(=O)C(C)Nc3ncnc(N4CCOCC4)c32)cc1 (centres undefined) | inconclusive: 35.5 µM [inhibitor, partial curve, poor fit] | 
Fc1ccc(-n2cc(CNCCc3cccnc3)c(-c3ccccc3Cl)n2)cc1 | inconclusive: 12.6 µM [inhibitor, partial curve, poor fit] | 
c1ccc(COc2cccc(-c3cc4nc(NCCc5ccncc5)ccn4n3)c2)cc1 | inconclusive: 20 µM [inhibitor, single point] | 
COc1ccc(CNS(=O)(=O)c2ccc(F)c(C(=O)Nc3c(C)cc(C)cc3C)c2)cc1 |  | inactive: -0.28%

SMILES | Potency | activity, negative = inhibition
O=C(COc1ccccc1)NCC(c1ccco1)N1CCN(c2ccc(F)cc2)CC1 (centres undefined) |  | inactive: -2.61%
CCCc1cc2c(cc1NC(=O)c1ccco1)OCO2 | inconclusive: 2.51 µM [inhibitor, full curve] | 
CCC/C(=N\NC(=O)c1csc(C)c1C)c1cccs1 |  | inactive: -2.26%
COc1ccc(CCNC(=O)c2ccc3c(SCC(=O)O)c4c(nc3c2)CCCC4)cc1OC |  | inactive: -11.2%
Cc1cnc(CNC(=O)C2CCC(=O)N(Cc3ccc(Cl)cc3)C2)[nH]1 (centres undefined) | inconclusive: 5.01 µM [inhibitor, single point] | 
COC(=O)c1cccc(NC(=S)Nc2cccc(Cl)c2C)c1 |  | inactive: 15.6%
CCc1ccc(C(=O)CSc2nc(-c3ccccc3)nc3c2CCCC3)cc1 |  | inactive: 4.1%
Cc1cc(C)cc(-n2ncc3c2CCCC3NC(=O)c2ccccc2N2CCOCC2)c1 (centres undefined) | inconclusive: 25.1 µM [inhibitor, single point] | 
CCCCn1nc(C(=O)NCC(c2cccs2)N2CCOCC2)c2ccccc2c1=O (centres undefined) |  | inactive: -23.7%
COc1ccc(N=C2SCC(c3ccc([N+](=O)[O-])cc3)=NN2CCO)cc1 | inconclusive: 35.5 µM [inhibitor, single point] | 
COc1ccc(-c2cc3c(=O)n(CC(=O)Nc4cc(C)ccc4C)ccn3n2)cc1 |  | inactive: -4.9%
S=C(c1ccc(-c2cc(Cl)ccc2Cl)o1)N1CCCCC1 | inconclusive: 10 µM [inhibitor, partial curve, poor fit] | 
Cc1cccc(Cl)c1NC(=O)N1CCCN(c2nc3ccc(Cl)cc3s2)CC1 | active: 14.1 µM | 
Cc1ccc(C(=O)NCCCN2CCOCC2)c(C)c1 | inconclusive: 6.31 µM [inhibitor, single point] | 
Cc1ccc(Cl)cc1-n1ncc2c(NCCC3=CCCCC3)ncnc21 | inconclusive: 35.5 µM [inhibitor, single point] | 
CCn1c(C)cc(/C=C2/NC(=O)N(CC(=O)Nc3cccc(C)c3)C2=O)c1C | inconclusive: 6.31 µM [inhibitor, single point] | 
Cn1c(=O)c2c(-c3ccccc3Br)n(Cc3ccccc3)cc2n(C)c1=O | inconclusive: 7.94 µM [inhibitor, partial curve, poor fit] | 
CC(=O)NC(CC(=O)OCC(=O)c1cc(C)ccc1C)c1ccccc1 (centres undefined) |  | inactive: -3.38%
Cc1c(NC(=O)Nc2ccc(Cl)c(C(F)(F)F)c2)c(=O)n(-c2ccccc2)n1C |  | inactive: -11.2%
Fc1ccccc1N1CCN(c2ncnc3onc(-c4cccc(Cl)c4)c23)CC1 | inconclusive: 1 µM [inhibitor, full curve, poor fit] | 
CCOc1ccc(Nc2cc(C)nc3ccc(C)cc23)cc1 | inconclusive: 35.5 µM [inhibitor, single point] | 
CC(C)Oc1ccc(C2NC(=O)c3ccccc3O2)cc1 (centres undefined) |  | inactive: -2.56%
